# Source: paper PMC4091267, “The Role of Chloride in the Mechanism of O2 Activation at the Mononuclear Nonheme Fe(II) Center of the Halogenase HctB” (Journal of the American Chemical Society, 2014)
# Molecular target: HctB (Lyngbya majuscula, UniProt Q1EDB4)
# Conditions: with and without NaCl (0.5-1 M), HctB and Ac-HctB, pD 7.5 (CD/MCD), pH 7.5, 10 °C (stopped-flow)
compound,measurement,value
O=C(O)CCC(=O)C(=O)O [α-KG],near-IR CD / MCD and VTVH MCD of the Fe(II) site; stopped-flow absorption of the,CD and MCD spectra of α-KG-Fe(II)-HctB and α-KG-Fe(II)-Ac-HctB in the absence and presence of chloride
